Test results published in the RNAGym collection of RNA variant scans (doi:10.7554/elife.90254).
The source gives no read counts; variants with many changes may rest on few reads.

B1: LINE1-mini (parent)
chain: GGCAGAGCUCAACACAGCGUGGCAAAGUGGCUGUGGCUAGACUGCC

Variants of: B1
Assay: self-cleavage, relative activity (ratio to wild type); higher = more cleavage; in vitro, sequencing; the parent is a self-cleaving ribozyme

| Variant | self-cleavage |
| --- | --- |
| U28G G30C G35A | 0.2 |
| G29U C37G G40A G44U | 0.2 |
| G29C U32G A39U C42A | 0.04 |
| G29U A41U C45U | 0.3 |
| G29A G40U G44C | 0.07 |
| A25U U28G G30U C31G | 0.1 |
| G27A G29A U34G G40U A41U U43A G44U | 0.01 |
| U28A G30U U34A G35C | 0.05 |
| G27U U34G C46A | 0.11 |
| G30A A41G U43A | 0.06 |
| A26C C37U C46G | 0.07 |
| U28C G30C U34A G44A | 0.01 |
| U28C U34A C45U | 0.29 |
| G27A G36A G40A G44A | 0.13 |
| U28A G30C G33U G35C G44U | 0.26 |
| A25U A26G C37U | 0.01 |
| G29U C31U C37U | 0.02 |
| G27C G36A G40U A41U | 0.5 |
| A26G G30C C42G | 0.03 |
| G27U C37U A39U A41G | 0.01 |
| U28G C31U C46G | 0.07 |
| U28G C31U C46U | 0.13 |
| A26U G33U G35U | 0.04 |
| A25U A26G G29A G35A | 0.01 |

| Variant | self-cleavage |
| --- | --- |
| A25G G40U C45U | 0.09 |
| G30A A39U A41U | 0.78 |
| G29C C37G C42A | 0.01 |
| U28C G30C G33U G35U | 0.15 |
| A26G G29U U32C C37U | 0.02 |
| G30A G33A A39G C42G | 0.03 |
| G29U A39G G44U | 0.05 |
| A25U C37G A41G | 0.01 |
| U28G G29A G40U | 0.15 |
| G27A G36C A39G | 0.05 |
| U28C G36C C37G A39G C45U | 0.02 |
| U28G U34C C42A | 0.04 |
| G29A C31G G36A | 0.16 |
| A25U G30U G35U G36A | 0.11 |
| A26G G30U U32A | 0.08 |
| U28A C37G U43C | 0.03 |
| U28C G35C G36U | 0.01 |
| A26G G30C G36U C37U | 0.01 |
| A26U G29A G40A | 0.01 |
| A25U U28C C37A | 0.03 |
| G27U U28G A41G | 0.11 |
| A25C G27A G40U | 0.13 |
| A25U A39C C42A G44A | 0.02 |
| G29C C37G G40C | 0 |

| Variant | self-cleavage |
| --- | --- |
| A25U U32C U34C | 0.02 |
| G29U G40U C45G | 0.06 |
| G29U G30U C31U | 0.16 |
| U28G G33A G35C | 0.03 |
| G27U G35C C46G | 0.03 |
| G27U G30U G36U | 0.08 |
| A26G C37U G40U | 0.19 |
| A26G G29U C31A | 0.3 |
| U28G G30A U38C | 0.88 |
| A25C G27C C37G | 0.03 |
| G29U U34A G35A | 0.04 |
| A26C U28G G33U | 0.1 |
| G27U U32C G33C | 0.03 |
| G29U U32A C37A U38A | 0.02 |
| U28G U32C G33C | 0.05 |
| G29C G30C C45G | 0.2 |
| G29C G35C A39C | 0.08 |
| U28G G30U G35U G40U | 0.11 |
| G30A G35U A41G | 0.1 |
| G27A C42G U43A | 0.06 |
| A26C G33C G44C | 0.03 |
| G27U C37G U43A | 0.05 |
| G27A G29U U34G C45G | 0.07 |
| G29A C31U U32C U38A | 0.23 |

| Variant | self-cleavage |
| --- | --- |
| U28C G33A A39U C42U | 0.01 |
| A25G G33U C42A | 0.04 |
| U28A U43A G44A | 0.08 |
| A26C U32G U38G | 0.02 |
| A26G A39G G40A | 0.02 |
| G27U G29C U43G | 0 |
| G27A G33C U34C U38G | 0.08 |
| G27U G29A G33A | 0.06 |
| U28C G40U C42G | 0.26 |
| U28C G40U C42U | 0.16 |
| A25G U38A A41U | 0.03 |
| U28G U34G C42G | 0.02 |
| A26G G30U A41C | 0.02 |
| A26G G30U A41U | 0.72 |
| A26G G27A C31A C37U | 0.03 |
| G29C U38A G40U G44U | 0.04 |
| G30A A41G C46U | 0.29 |
| G29A G30C C37G A41G | 0.01 |
| A25U G29U C31A | 0.05 |
| G29A U43A C45U | 0.04 |
| G27C U43A G44A | 0.06 |
| A26C G40C A41C | 0.09 |
| A25U G30U C31A C37G C46G | 0.01 |
| A25U G44U C46G | 0.14 |

| Variant | self-cleavage |
| --- | --- |
| A26U A39C G40C | 0.19 |
| G27U C31G U38A C42A | 0.32 |
| G27C G30U U38G A41C | 0.01 |
| A26C U32G G36U | 0.04 |
| G29U G35A G36U G40U | 0.55 |
| A26G G30U G40A | 0.17 |
| G27C C37U A39C C46A | 0.26 |
| U28G G29C C31U G36C C37A | 0.1 |
| A25G U38A G40A | 0.03 |
| A26U G30A C31G U34A | 0.01 |
| G27U G40C C45A | 0.07 |
| G29U G40U C46G | 0.17 |
| G27A U28A C31U | 0.26 |
| U28C A39U G40C C46A | 0.39 |
| A25G G36C C45G | 0.04 |
| A25G U32A C42A | 0.08 |
| A26G G33C G36U | 0.02 |
| A25U U34G G35A | 0.01 |
| U28C G40C U43C | 0.1 |
| A26C C31U A41C | 0.06 |
| G29C G30U G35A | 0.03 |
| A26U G29A G35C G36U | 0.09 |
| A25G G27C A41C | 0 |
| G29U C42A C45G | 0.12 |

| Variant | self-cleavage |
| --- | --- |
| G27U G33C C42A G44U | 0.01 |
| G27U G29U C31A G35U | 0.02 |
| A26U U32C U34A | 0.05 |
| G27U G35C C42A | 0.02 |
| A26U C31G U34A C45G C46G | 0.07 |
| A26C U32A G33A G35C U38G | 0.05 |
| G27A G29C A39C G40U | 0.02 |
| G29U G36U C37A G44A | 0.02 |
| G29A C37U U38G | 0.06 |
| U28C G30C A39G | 0.09 |
| U28A G36C G40A C42G | 0.02 |
| A25C G33A G44A | 0.08 |
| U28G G29C G40C | 0 |
| A26U G30U G33U | 0.09 |
| A26C G35A A41G | 0.07 |
| U28G G33U C37U | 0.27 |
| U28A C31U G40U G44C | 0.05 |
| G27C G30U C42A | 0.08 |
| G27C U28C G35U A41C U43A | 0.02 |
| G27U G29C U32G C37U | 0.02 |
| A25G A26C U34G | 0.03 |
| A25G G30A U32A G44C | 0.05 |
| U28A G40C G44A C45U | 0.06 |
| G27U U28C G36A C45U | 0.11 |

| Variant | self-cleavage |
| --- | --- |
| G29C G44C C46U | 0.32 |
| A25C G27C G29A C31A | 0.06 |
| U28A G36A A41G | 0.19 |
| G27C G44U C46A | 0.03 |
| A26U U38C A41G | 0.38 |
| A26U U38C A41C | 0.04 |
| U28G U32A G36U C37A G40U | 0.06 |
| A25U A26C U32G | 0.17 |
| A25U A26U C31U | 0.09 |
| G27A U28G G30U | 1.72 |
| A25G G29C C37G G44C | 0.01 |
| A25C G33A C45A | 0.04 |
| G30A C37A U38C | 0.03 |
| A26U U38A C45G | 0.32 |
| A25U C42G C46A | 0 |
| U28G G29U C45G | 0.03 |
| A25G C37A A39C C42A | 0.04 |
| A25C U34C C46A | 0.09 |
| G29A G30U A41G C46A | 0.05 |
| U28A G29C G36U | 0.01 |
| G27A G33A C46A | 0.04 |
| U28A U32G C37G U38G U43C | 0.01 |
| G29U C31U U32G G36U | 0.04 |
